In patent US10358436B2, “Kinase inhibitors and method of treating cancer” (University Health Network, priority 2010, dated 2019) one finds GI50 data, which are given here for 17 compounds.

Each structure is given as a SMILES string. Like-named read-outs stand apart in the source and are kept apart here. Where only a bound is given, the exact number is not on record here.

Common to all, as to assay: cells
Assay [1] concerns A549 lung cancer cell line. The following applies: Homo sapiens, A549, 120 h, read-out: Cell Line GI50 Range A-549.
Assay [2] deals with HCC1954 basal breast cancer cell line. The following applies: Homo sapiens, HCC1954, 120 h.
In assay [3] the test system is SW620 colon cancer cell line. Particulars: Homo sapiens, SW-620, 120 h, read-out: Cell Line GI50 Range SW-620.
Assay [4] relates to MCF-7 luminal breast cancer cell line. Particulars: Homo sapiens, MCF7, 120 h.
Assay [5] relates to MDA-MB-468 basal breast cancer cell line. Particulars: Homo sapiens, MDA-MB-468, 120 h.
[6] abbreviates: read-out: Cell Line GI50 Range HCC-1954.
Setting [7] is: read-out: Cell Line GI50 Range MCF-7.
Where [8] appears, read: read-out: Cell Line GI50 Range MDA-MB-468.
The mark [9] stands for this setting: read-out: Cell Line GI50 Range HCC-1954, HCC1954 basal breast cancer cell line, SRB assay, 5 days.
[10] abbreviates: read-out: Cell Line GI50 Range MCF-7, MCF-7 luminal breast cancer cell line, SRB assay, 5 days.
Where [11] appears, read: read-out: Cell Line GI50 Range MDA-MB-468, MDA-MB-468 basal breast cancer cell line, SRB assay, 5 days.

For `COc1ccc2c(c1)[C@]1(C[C@H]1c1ccc3c(-c4ccc(N5CCNCC5)nc4)n[nH]c3c1)C(=O)N2` (relative stereo) [Example A21, 4-(5-(6-((1R*,2S*)-5′-Methoxy-2′-oxospiro[cyclopropane-1,3′-indoline]-2-yl)-1H-indazol-3-yl)pyridinium-2-yl)piperazine bis(2,2,2-trifluoroacetate)], the GI50 in assay [1] is 1000 to 10000 nM; in assay [2] (setting [6]) it was above 10000 nM; in assay [3], 1000 to 10000 nM; in assay [4] (setting [7]) it was below 100 nM; in assay [5] (setting [8]) it was 100 to 1000 nM.
For the compound `COc1ccc2c(c1)[C@]1(C[C@H]1c1ccc3c(-c4ccc(N(C)CCN(C)C)cc4)n[nH]c3c1)C(=O)N2` [Example A129, (1R,2S)-2-(3-(4-((2-(dimethylamino)ethyl)(methyl)amino)phenyl)-1H-indazol-6-yl)-5′-methoxyspiro[cyclopropane-1,3′-indolin]-2′-one 2,2,2-trifluoroacetate], the concentration for 50% growth inhibition (GI50) in assay [1] is below 100 nM; in assay [2] (setting [9]), 1000 to 10000 nM; in assay [3], below 100 nM; in assay [4] (setting [10]), below 100 nM; in assay [5] (setting [8]) it was below 100 nM.
As for `COc1ccc2c(c1)[C@]1(C[C@H]1c1ccc3c(-c4ccc5nccn5c4)n[nH]c3c1)C(=O)N2` [Example A107, (1R,2S)-2-(3-(imidazo[1,2-a]pyridin-6-yl)-1H-indazol-6-yl)-5′-methoxyspiro[cyclopropane-1,3′-indolin]-2′-one 2,2,2-trifluoroacetate], the GI50 in assay [1] was 1000 to 10000 nM; in assay [2] (setting [6]) it was above 10000 nM; in assay [3], 1000 to 10000 nM; in assay [4] (setting [7]) it was 1000 to 10000 nM; in assay [5] (setting [8]), 100 to 1000 nM.
Regarding `COc1ccc2c(c1)[C@]1(C[C@H]1c1ccc3c(/C=C/c4cccc(CN(C)C)c4)n[nH]c3c1)C(=O)N2` (relative stereo) [Example A135, (1R*,2S*)-2-(3-(3-((dimethylamino)methyl)styryl)-1H-indazol-6-yl)-5′-methoxyspiro[cyclopropane-1,3′-indolin]-2′-one 2,2,2-trifluoroacetate], the concentration for 50% growth inhibition (GI50) was below 100 nM in assay [1]; above 10000 nM in assay [2] (setting [9]); 100 to 1000 nM in assay [3]; below 100 nM in assay [4] (setting [10]); below 100 nM in assay [5] (setting [8]).
As to `CN1CCN(c2ccc(-c3n[nH]c4cc([C@@H]5C[C@@]56C(=O)Nc5ccc(F)cc56)ccc34)cn2)CC1` (relative stereo) [Example A210, 1R*,2S*1-5′-fluoro-2-(3-(6-(4-methylpiperazine-1-yl)pyridine-3-yl)-1H-indazol-6-yl)-spiro[cyclopropane-1,3′-indolin]-2′-one], the 50% growth inhibitory concentration (GI50) in assay [1] was in the range of 100 to 1000 nM; in assay [2] (setting [9]), 1000 to 10000 nM; in assay [3], 100 to 1000 nM; in assay [4] (setting [7]), 100 to 1000 nM; in assay [5] (setting [11]), 100 to 1000 nM.
For the compound `COc1ccc2c(c1)[C@]1(C[C@H]1c1ccc3c(-c4cccc(C(=O)N5CCN(C)CC5)c4)n[nH]c3c1)C(=O)N2` (relative stereo) [Example A149, (1R*,2S*)-5′-methoxy-2-(3-(3-(4-methylpiperazine-1-carbonyl)phenyl)-1H-indazol-6-yl)spiro[cyclopropane-1,3′-indolin]-2′-one 2,2,2-trifluoroacetate], the GI50 in assay [1] is above 10000 nM; in assay [2] (setting [6]), above 10000 nM; in assay [3], above 10000 nM; in assay [4] (setting [7]), 1000 to 10000 nM; in assay [5] (setting [8]), 1000 to 10000 nM.
Regarding `COc1ccc2c(c1)[C@]1(C[C@H]1c1ccc3c(/C=C/c4ccc(N5CCN(C)CC5)cc4)n[nH]c3c1)C(=O)N2` (relative stereo) [Example A174, (1R*,2S*)-(E)-5′-methoxy-2-(3-(4-(4-methylpiperazin-1-yl)styryl)-1H-indazol-6-yl)spiro[cyclopropane-1,3′-indolin]-2′-one 2,2,2-trifluoroacetate], the GI50 in assay [1] is below 100 nM; in assay [2] (setting [6]), 100 to 1000 nM; in assay [3] it was below 100 nM; in assay [4] (setting [7]), below 100 nM; in assay [5] (setting [8]), below 100 nM.
Take `COc1ccc2c(c1)[C@]1(C[C@H]1c1ccc3c(-c4ccc(N5C[C@@H](C)N[C@@H](C)C5)cc4)n[nH]c3c1)C(=O)N2` [Example A126, (1R,2S)-2-(3-(4-(cis-3,5-dimethylpiperazin-1-yl)phenyl)-1H-indazol-6-yl)-5′-methoxyspiro[cyclopropane-1,3′-indolin]-2′-one 2,2,2-trifluoroacetate]: the GI50 in assay [1] was below 100 nM; in assay [2] (setting [9]), 1000 to 10000 nM; in assay [3], below 100 nM; in assay [4] (setting [7]), below 100 nM; in assay [5] (setting [11]) it was below 100 nM.
As for `COc1ccc2c(c1)[C@]1(C[C@H]1c1ccc3c(/C=C/c4ccc(CCN5CCOCC5)cc4)n[nH]c3c1)C(=O)N2` [Example A177, (1R,2S)-(E)-5′-methoxy-2-(3-(4-(2-morpholinoethyl)styryl)-1H-indazol-6-yl)spiro[cyclopropane-1,3′-indolin]-2′-one 2,2,2-trifluoroacetate], the 50% growth inhibitory concentration (GI50) in assay [1], in assay [2] (setting [9]), in assay [3], in assay [4] (setting [10]) and in assay [5] (setting [8]) was below 100 nM in each case.
Consider `COc1ccc2c(c1)[C@]1(C[C@@H]1c1ccc3c(-c4ccc(N5CCN(C)CC5)nc4)n[nH]c3c1)C(=O)N2` (relative stereo) [Example A17, (1R*,2R*)-5′-Methoxy-2-(3-(6-(4-methylpiperazin-1-yl)pyridin-3-yl)-1H-indazol-6-yl)spiro[cyclopropane-1,3′-indolin]-2′-one], for which the GI50 in assay [1], in assay [3], in assay [4] (setting [7]) and in assay [5] (setting [11]) was 1000 to 10000 nM each time.
Turning to `COc1ccc2c(c1)[C@]1(C[C@H]1c1ccc3c(-c4ccc(CN5CCN(C)CC5)cc4)n[nH]c3c1)C(=O)N2` (relative stereo) [Example A140, (1R*,2S*)-5′-methoxy-2-(3-(4-((4-methylpiperazin-1-yl)methyl)phenyl)-1H-indazol-6-yl)spiro[cyclopropane-1,3′-indolin]-2′-one bis-2,2,2-trifluoroacetate], the GI50 was below 100 nM in assay [1]; 1000 to 10000 nM in assay [2] (setting [6]); 1000 to 10000 nM in assay [3]; below 100 nM in assay [4] (setting [7]); below 100 nM in assay [5] (setting [8]).
Regarding `Cc1ccc(/C=C/c2n[nH]c3cc([C@@H]4C[C@@]45C(=O)Nc4ccccc45)ccc23)cn1` [Example A150, (1R,2S)-2-(3-((E)-2-(6-methylpyridin-3-yl)vinyl)-1H-indazol-6-yl)spiro[cyclopropane-1,3′-indolin]-2′-one], the GI50 was 100 to 1000 nM in assay [1]; above 10000 nM in assay [2] (setting [9]); 100 to 1000 nM in assay [3]; 100 to 1000 nM in assay [4] (setting [10]); 100 to 1000 nM in assay [5] (setting [8]).
As to `COc1ccc2c(c1)[C@]1(C[C@H]1c1ccc3c(/C=C/c4cccc(CN5CCOCC5)c4)n[nH]c3c1)C(=O)N2` (relative stereo) [Example A133, (1R*,2S*)-5′-methoxy-2-(3-(3-(morpholinomethyl)styryl)-1H-indazol-6-yl)spiro[cyclopropane-1,3′-indolin]-2′-one 2,2,2-trifluoroacetate], the GI50 was below 100 nM in assay [1]; above 10000 nM in assay [2] (setting [6]); 100 to 1000 nM in assay [3]; below 100 nM in assay [4] (setting [7]); below 100 nM in assay [5] (setting [8]).
In the case of `COc1ccc2c(c1)[C@]1(C[C@H]1c1ccc3c(-c4ccc(N5CCN(C(C)C)CC5)cc4)n[nH]c3c1)C(=O)N2` (relative stereo) [Example A96, (1R*,2S*)-2-(3-(4-(4-isopropylpiperazin-1-yl)phenyl)-1H-indazol-6-yl)-5′-methoxyspiro[cyclopropane-1,3′-indolin]-2′-one], the GI50 in assay [1] was below 100 nM; in assay [2] (setting [9]), 1000 to 10000 nM; in assay [3], below 100 nM; in assay [4] (setting [10]), below 100 nM; in assay [5] (setting [8]) it was below 100 nM.
Turning to `COc1ccc2c(c1)[C@]1(C[C@H]1c1ccc3c(-c4ccc(CCN5CCOCC5)cc4)n[nH]c3c1)C(=O)N2` (relative stereo) [Example A159, (1R*,2S*)-5′-methoxy-2-(3-(4-(2-morpholinoethyl)phenyl)-1H-indazol-6-yl)spiro[cyclopropane-1,3′-indolin]-2′-one 2,2,2-trifluoroacetate], the 50% growth inhibitory concentration (GI50) in assay [1] was 100 to 1000 nM; in assay [2] (setting [9]), above 10000 nM; in assay [3] it was 1000 to 10000 nM; in assay [4] (setting [10]) it was 100 to 1000 nM; in assay [5] (setting [8]), 100 to 1000 nM.
As for `COc1ccc2c(c1)[C@]1(C[C@H]1c1ccc3c(-c4cccc(CCO)c4)n[nH]c3c1)C(=O)N2` (relative stereo) [Example A46, (1R*,2S*)-2-(3-(3-(2-hydroxyethyl)phenyl)-1H-indazol-6-yl)-5′-methoxy spiro[cyclopropane-1,3′-indolin]-2′-one], the GI50 is 1000 to 10000 nM in assay [1]; above 10000 nM in assay [2] (setting [6]); above 10000 nM in assay [3]; 1000 to 10000 nM in assay [4] (setting [7]); 1000 to 10000 nM in assay [5] (setting [8]).
Take `Cc1ccc(/C=C/c2n[nH]c3cc([C@@H]4C[C@@]45C(=O)Nc4ccccc45)ccc23)c(C)n1` (relative stereo) [Example A158, (1R*,2S*)-2-(3-((E)-2-(2,6-dimethylpyridin-3-yl)vinyl)-1H-indazol-6-yl)spiro[cyclopropane-1,3′-indolin]-2′-one]: the 50% growth inhibitory concentration (GI50) is 100 to 1000 nM in assay [1], above 10000 nM in assay [2] (setting [9]), 100 to 1000 nM in assay [3] and 1000 to 10000 nM in assay [4] (setting [10]).

In general, GI50 refers to the concentration at which growth is held to half of that of the control.
